The values below come from article PMC1764712, “Recruitment and Activation of RSK2 by HIV-1 Tat” (PLoS ONE, 2007).

Sequences of proteins named here, by UniProt entry; tags and fusion partners are left off. A change or cut given only in a name is not applied to a line headed by its entry. Residues count along the entry.
UniProt P51812: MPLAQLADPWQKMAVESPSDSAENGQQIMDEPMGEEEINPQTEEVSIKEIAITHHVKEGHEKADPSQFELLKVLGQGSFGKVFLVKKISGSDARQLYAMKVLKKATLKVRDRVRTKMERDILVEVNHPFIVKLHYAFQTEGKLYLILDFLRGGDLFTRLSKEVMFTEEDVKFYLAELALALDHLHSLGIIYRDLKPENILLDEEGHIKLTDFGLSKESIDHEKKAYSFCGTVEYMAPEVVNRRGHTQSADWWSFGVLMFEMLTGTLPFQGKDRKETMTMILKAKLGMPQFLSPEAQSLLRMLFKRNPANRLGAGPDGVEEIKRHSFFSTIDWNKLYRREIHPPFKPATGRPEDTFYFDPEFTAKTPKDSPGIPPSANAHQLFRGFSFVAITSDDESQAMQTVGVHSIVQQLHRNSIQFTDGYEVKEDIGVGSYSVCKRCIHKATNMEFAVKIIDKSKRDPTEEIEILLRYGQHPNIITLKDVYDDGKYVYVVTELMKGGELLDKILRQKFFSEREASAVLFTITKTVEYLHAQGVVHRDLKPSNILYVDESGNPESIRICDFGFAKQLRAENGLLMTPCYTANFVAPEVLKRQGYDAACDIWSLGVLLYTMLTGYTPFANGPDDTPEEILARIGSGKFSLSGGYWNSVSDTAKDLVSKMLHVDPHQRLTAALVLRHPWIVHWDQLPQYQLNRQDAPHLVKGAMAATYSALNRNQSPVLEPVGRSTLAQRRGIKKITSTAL
UniProt P04608: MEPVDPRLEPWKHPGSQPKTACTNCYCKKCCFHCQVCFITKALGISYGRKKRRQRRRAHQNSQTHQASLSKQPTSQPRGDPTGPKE
Biotinylated synthetic Tat protein (amino acids 1–72): residues 1-72 of P04608
GST-Tat, only the N-terminal 35 amino acids of Tat: residues 1-35 of P04608
GST-Tat lacking amino acids 1–36: residues 37-86 of P04608

Results are given in words; binding and its absence hold for the method and conditions named. For some assays here: Binding seen in cells or lysates may run through a third protein. Some results given as binding are weak or reduced against the parent protein; the word gives no strength.

The target in test [1] is Endogenous RSK2 of Jurkat T cells (human (endogenous in Jurkat)) (UniProt P51812). The experiment in a line: co-IP; cellular extracts of Jurkat T cells infected with a lentiviral vector expressing Tat/FLAG from the HIV LTR, and of uninfected Jurkat cells; sepharose beads alone as control.
The target in test [2] is Biotinylated synthetic Tat protein (amino acids 1–72) (HIV-1) (UniProt P04608). Put plainly: pull-down; biotinylated synthetic Tat immobilised on streptavidin-sepharose, incubated with 0.5 or 1.5 µl reticulocyte lysate with [35S]-RSK2 proteins, 10 min at 30°C, HB buffer with 120 mM NaCl; washes with 1 M KCl; autoradiography; only the target purified.
Test [3] concerns the target GST-Tat lacking amino acids 1–36 (HIV-1) (UniProt P04608). Put plainly: pull-down; GST proteins immobilised on glutathione-sepharose, incubated with 200 ng human recombinant RSK2; binding buffer 20 mM Hepes pH 7.9, 1% Triton, 0.5% NP-40, 200 mM KCl; washes with 1 M KCl; western blot with α-RSK2; both purified.
In test [4] the target is GST-Tat, only the N-terminal 35 amino acids of Tat (HIV-1) (UniProt P04608). The description is as above.

Turning to “Tat/FLAG expressed from the HIV LTR of an HIV-based lentiviral vector (from UniProt P04608 1-86)”, the binding entry in test [1] is given as “binds”.
Take “In vitro synthesized radioactive RSK2 1–360 (from UniProt P51812 1-360) (domain or fragment)”: the binding entry in test [2] is reported as “binds”.
As to “Full-length human recombinant RSK2 isolated from insect cells (from UniProt P51812 1-740) (enzyme)”, the binding result in test [3] was “binds”; in test [4], “no binding”.
Regarding “In vitro synthesized radioactive full-length RSK2 (from UniProt P51812 1-740) (enzyme)”, in test [2], the binding result was “binds”.
